Experimental data as given in PubChem BioAssay AID1963576 (National Center for Advancing Translational Sciences (NCATS), 2024).
Out of some 46,000 compounds screened, about 60 (0.1%) were called active. About 3% were inconclusive and are not listed. The call rests on the fitted dose curve; in most records, active means well fitted inhibition curve with a large enough effect; inconclusive means small, poorly fitted or top-dose-only effect; inactive means no such curve, though single readings can be large or run the other way. Some of the results follow.

assay: Primary qHTS assay for Inhibitors of ovarian cancer metastasis using an organotypic tumor microenvironment (TME) model.; further: nearly all actives have a fitted effect of over 65% in size;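 on activity change, negative = inhibition: plate controls were DMSO wells for no effect and tomatine positive control wells for full effect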; conditions: SKOV3ip1-GFP adhesion/invasion on 3D omental model, fluorescence; series mostly up to 45.8 µM; activity change, negative = inhibition: at the top concentration
How it was run: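 A 3D layer of primary human omental fibroblasts, mesothelial cells, fibronectin and collagen I, grown 48 hr, received SKOV3ip1-GFP cells in serum-free medium plus compounds at 0.36-46 umol/L. After 2 hr RT and 16 hr 37 C, fixed adherent GFP cells were counted; normalized to DMSO and tomatine.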

Activity change, negative = inhibition, inactive:
Fc1ccc(-n2ncc3c(NCCCc4ccccc4)ncnc32)cc1 25%, CCOC(=O)C1CCCN(S(=O)(=O)c2cc(Br)cc3c2N(C(=O)CC)CC3)C1 (stereo not given) 7.08%, CCOc1ccc(C2c3[nH]c4ccccc4c3CCN2C(=O)CCC2CCCC2)cc1 (stereo not given) -1.58%, CN1CCC(=C2c3ccccc3CC(=O)c3sccc32)CC1 -1.2%, CC(=O)C(Sc1nc(-c2ccccc2Cl)nc2c1c(=O)n(C)c(=O)n2C)C(=O)N(C)C (stereo not given) -8.61%, COc1ccc(OC)c(CNc2ncc(-c3ccc(Cl)cc3)n2C)c1 0.707%, Cc1cccc(C)c1NC(=O)c1cc2sccc2n1Cc1ccc(F)cc1 2.46%, CCN(Cc1ccccc1)S(=O)(=O)c1ccc(F)c(C(=O)Nc2ccc(C(C)C)cc2)c1 1.23%, CCC(=O)N1CCc2cc(S(=O)(=O)NC(CC(C)C)C(=O)NCc3cccc(OC)c3)ccc21 (stereo not given) 5.68%, Cc1ccc(CNC(=O)CCCn2nc(C)n3c(cc4sccc43)c2=O)cc1 -16.6%, Cc1ccc(NC(=O)NCc2c(-n3cccc3)sc3c2CCCC3)c(Cl)c1 -14.2%, COc1cccc(C(=O)c2cn(CC(=O)Nc3ccc4c(c3)OCCO4)c3nc(C)ccc3c2=O)c1 2.71%, CC(=O)c1ccc(S(=O)(=O)Nc2cccc(-c3ccc(N4CCCC4)nn3)c2)cc1 4.23%, Cc1ccc(Sc2c(C)nn(-c3ccccc3)c2OC(=O)CC(C)C)cc1 -0.537%, Cc1ccccc1CN1C(=O)c2ccccc2Sc2ccc(C(=O)NCCCN3CCOCC3)cc21 -6.77%, COc1ccccc1N1CCN(CC(O)COc2cccc3ccccc23)CC1 (stereo not given) 8%, CC(=O)c1ccc(NC(=O)c2nn(C)c3c2COc2ccccc2-3)cc1 -4.15%, Cc1ccc(NC(=O)c2sc3nc[nH]c(=O)c3c2C)cc1C -2.73%, O=C(NCCc1ccc(Cl)cc1)c1ccc2c(c1)N(Cc1ccccc1)C(=O)CS2 8.54%, O=c1c2ccccc2nc(-c2ccc(Cl)cc2)n1CCCCOc1ccc(F)cc1 6.65%, CC(Oc1ccccc1F)C(=O)N1CCC(c2nc3ccccc3o2)CC1 (stereo not given) -1.11%, CCc1cc2c(-c3ccccc3)cc(=O)oc2c2c1OCN(Cc1ccc(C)cc1)C2 -5.59%, CCOC(=O)c1c(NC(=O)c2cc(-c3ccc(Br)cc3)on2)sc(C)c1C 3%, Cc1ccc(N(CC(=O)NCc2ccc(OC(C)C)cc2)S(=O)(=O)N(C)C)cc1 2.58%, CCOc1ccc(CN2C(=O)c3ccccc3Sc3ccc(C(=O)NC4CCC(C)CC4)cc32)cc1 (stereo not given) 48.1%, COC(=O)c1ccc(NC(=O)CCOc2ccccc2)cc1 -3.39%, Cc1cccc(NC(=O)Cn2c(=O)oc3cc(S(=O)(=O)N4CCCCCC4)ccc32)c1 -25.4%, COc1ccc(-c2noc(CSc3nnc(-c4ccncc4)n3-c3ccc(OC)cc3)n2)cc1 -9.02%, O=C(NC1CC(=O)N(c2ccc(F)cc2)C1)C(c1ccccc1)c1ccccc1 (stereo not given) -2.31%, Cn1cc(C(=O)N2CCN(c3ccccc3)CC2)c(=O)c2cc(S(=O)(=O)N3CCCC3)ccc21 1.04%, COC(=O)c1ccc(NC(=O)c2cc3cc4ccc(OC)c(Cl)c4nc3s2)cc1 6.91%, COc1ccc(CNC(=O)CCS(=O)(=O)c2cc3c4c(c2)CCN4C(=O)CC3)cc1 4.92%, CCCC(=O)Nc1nnc(S(=O)(=O)N(C)c2ccccc2)s1 4.73%, COc1ccc(S(=O)(=O)N(CCc2ccccc2)CC(=O)NCc2ccc(C)cc2)cc1 3.13%, CCOc1ccc(-n2nc3ccc(NC(=O)COc4ccccc4C)cc3n2)cc1 5.04%, O=C(Nc1c(O)c2ccccc2oc1=O)c1ccccc1Cl -7.9%, COCCNC(=O)c1ccc(NC(=O)N2CCCCc3ccccc32)cc1 6.37%, O=C(NCC(c1cccnc1)N1CCN(Cc2ccccc2)CC1)C(=O)Nc1ccc(F)cc1 (stereo not given) -11.7%, COc1cccc(CNC(=O)C2CCCN(c3nnc(-n4c(C)ccc4C)s3)C2)c1 (stereo not given) 38.5%, CN1CCN(c2cc(C(=O)Nc3ccc4c(c3)-c3c(c(C(N)=O)nn3-c3ccc(F)cc3)CC4)c(Cl)cn2)CC1 -25.2%, Cc1cc(C)c(S(=O)(=O)Nc2ccc(-c3ccc(N4CCCCC4)nn3)cc2)cc1C -6.01%, CC1=C[C@@H]2[C@@H]([C@@H](O)C[C@@]3(C)[C@H]2C[C@@H](C)[C@]3(O)C(=O)CO)[C@@]2(C)Cc3cnn(-c4ccccc4)c3C=C12 -18.2%, COC(=O)c1ccccc1NC(=O)CSc1c2c(nc3ccc(Cl)cc13)CCCC2 5.01%

outcome, inactive:
CCCCN(CC)C(=O)Cn1cc2c(n1)-c1c(oc(C(=O)N3CCCC3)c1C)CC2, Cc1ccc(CNC(=O)c2cn(C)c3ccc(S(=O)(=O)N4CCC(C)CC4)cc3c2=O)cc1, CCOC(=O)c1cccc(NC(=O)NC2COc3ccccc3C2)c1 (stereo not given), COc1cc(NC(=O)C2CCN(S(=O)(=O)c3c(C)noc3/C=C/c3c(C)cc(C)cc3C)CC2)cc(OC)c1, CCOc1ccc(CC(=O)NCc2ccc3c(c2)CCN3C(=O)c2ccc(F)cc2)cc1OCC, O=C(NCCCc1ccccc1)c1ccc2c(c1)sc1nc(-c3ccc(F)cc3)cn12, CCn1c(SCC(=O)Nc2cc(Cl)ccc2OC)nc2c([nH]c3ccccc32)c1=O, Cc1ccc(NC(=O)CN2C(=O)c3ccccc3Sc3ncccc32)c(C)c1, COc1ccccc1NC(=O)C1=C(C)Nc2nc(SCc3ccccc3)nn2C1c1cccs1 (stereo not given), CCOc1ccccc1NC(=O)N1CCC(N2CCN(Cc3ccccc3)C(=O)C2=O)CC1, CCOC(=O)c1ccccc1NC(=O)CCc1c(C)nc2c(c1C)c(=O)n(C)c(=O)n2C, Cc1ccc(Cn2c(Cc3ccccc3)nc3ccccc32)cc1, O=C(C1CC1)N1CCc2cc(Br)cc(S(=O)(=O)Nc3ccc(C(F)(F)F)cc3)c21, COc1ccc(NC(=O)C(=O)NCCc2csc3nc(-c4ccccc4C)nn23)cc1, CCOc1ccc(CNC(=O)CN2C(=O)CSc3c2c(C)nn3-c2ccccc2)cc1, COc1ccccc1CCNC(=O)C1CCN(c2nc3ccccc3nc2C(F)(F)F)CC1, CCn1cnc2cc(NCc3ccc(N(C)C)cc3)ccc21
